{"source": "the supplement of paper PMC8728848", "assay_in_all_cases": "glycan array binding signal (z-score within array); higher = stronger binding", "settings_in_all_cases": "glycan notation: IUPAC condensed, linker removed; mutation: D22R", "key": {"[1]": {"biological_target": "GalNAc(b1-4)GlcNAc", "method_in_brief": "(§1)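 The Consortium for Functional Glycomics database supplied 3228 glycan arrays, of which those lacking an available protein sequence were dropped. The binding signal, a within-array Z-score, was averaged across arrays of the same protein sequence and across linkers. Negative scores can be read as non-binding.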"}, "[2]": {"biological_target": "GalNAc(b1-4)GlcNAc(b1-2)Man", "method_in_brief": "as §1"}, "[3]": {"biological_target": "GalNAc(b1-4)GlcNAc(b1-2)Man(a1-3)[GalNAc(b1-4)GlcNAc(b1-2)Man(a1-6)]Man(b1-4)GlcNAc(b1-4)GlcNAc", "method_in_brief": "as §1"}, "[4]": {"biological_target": "GalNAc(b1-4)GlcNAc(b1-3)GalNAc(b1-4)GlcNAc", "method_in_brief": "as §1"}, "[5]": {"biological_target": "GalNAc(b1-4)GlcNAc6S", "method_in_brief": "as §1"}, "[6]": {"biological_target": "GalNAc(b1-6)GalNAc", "method_in_brief": "as §1"}, "[7]": {"biological_target": "GalNAc3S(b1-4)GlcNAc", "method_in_brief": "as §1"}, "[8]": {"biological_target": "GalNAc3S(b1-4)GlcNAc3S", "method_in_brief": "as §1"}, "[9]": {"biological_target": "GalNAc3S(b1-4)[Fuc(a1-3)]GlcNAc", "method_in_brief": "as §1"}, "[10]": {"biological_target": "GalNAc4S6S(b1-4)GlcNAc", "method_in_brief": "as §1"}, "[11]": {"biological_target": "GalNAc6S(b1-4)GlcNAc", "method_in_brief": "as §1"}, "[12]": {"biological_target": "Glc(a1-4)Glc", "method_in_brief": "as §1"}, "[13]": {"biological_target": "Glc(a1-4)Glc(a1-4)Glc(a1-4)Glc", "method_in_brief": "as §1"}, "[14]": {"biological_target": "Glc(a1-6)Glc(a1-6)Glc", "method_in_brief": "as §1"}, "[15]": {"biological_target": "Glc(a1-6)Glc(a1-6)Glc(a1-6)Glc", "method_in_brief": "as §1"}, "[16]": {"biological_target": "Glc(b1-4)Glc", "method_in_brief": "as §1"}, "[17]": {"biological_target": "Glc(b1-6)Glc", "method_in_brief": "as §1"}, "[18]": {"biological_target": "GlcA(b1-3)Gal", "method_in_brief": "as §1"}, "[19]": {"biological_target": "GlcA(b1-3)GlcNAc", "method_in_brief": "as §1"}, "[20]": {"biological_target": "GlcA(b1-6)Gal", "method_in_brief": "as §1"}, "[21]": {"biological_target": "GlcA3S(b1-3)Gal(b1-4)GlcNAc(b1-2)Man", "method_in_brief": "as §1"}, "[22]": {"biological_target": "GlcA3S(b1-3)Gal(b1-4)GlcNAc(b1-3)Gal(b1-4)Glc", "method_in_brief": "as §1"}, "[23]": {"biological_target": "GlcNAc(a1-3)Gal(b1-4)GlcNAc", "method_in_brief": "as §1"}, "[24]": {"biological_target": "GlcNAc(a1-4)Gal(b1-3)GlcNAc", "method_in_brief": "as §1"}, "[25]": {"biological_target": "GlcNAc(a1-4)Gal(b1-4)GalNAc", "method_in_brief": "as §1"}, "[26]": {"biological_target": "GlcNAc(a1-4)Gal(b1-4)GlcNAc", "method_in_brief": "as §1"}, "[27]": {"biological_target": "GlcNAc(a1-4)Gal(b1-4)GlcNAc(b1-3)Gal(b1-4)Glc", "method_in_brief": "as §1"}, "[28]": {"biological_target": "GlcNAc(a1-4)Gal(b1-4)GlcNAc(b1-3)Gal(b1-4)GlcNAc", "method_in_brief": "as §1"}, "[29]": {"biological_target": "GlcNAc(a1-4)Gal(b1-4)GlcNAc(b1-3)Gal(b1-4)GlcNAc(b1-3)Gal(b1-4)GlcNAc", "method_in_brief": "as §1"}, "[30]": {"biological_target": "GlcNAc(a1-4)Gal(b1-4)GlcNAc(b1-3)Gal(b1-4)[Fuc(a1-3)]GlcNAc(b1-3)Gal(b1-4)[Fuc(a1-3)]GlcNAc", "method_in_brief": "as §1"}, "[31]": {"biological_target": "GlcNAc(a1-6)Gal(b1-4)GlcNAc", "method_in_brief": "as §1"}, "[32]": {"biological_target": "GlcNAc(b1-2)Gal(b1-3)GalNAc", "method_in_brief": "as §1"}, "[33]": {"biological_target": "GlcNAc(b1-2)Man(a1-3)[GlcNAc(b1-2)Man(a1-6)]Man(b1-4)GlcNAc(b1-4)GlcNAc", "method_in_brief": "as §1"}, "[34]": {"biological_target": "GlcNAc(b1-2)Man(a1-3)[GlcNAc(b1-2)Man(a1-6)]Man(b1-4)GlcNAc(b1-4)[Fuc(a1-6)]GlcNAc", "method_in_brief": "as §1"}, "[35]": {"biological_target": "GlcNAc(b1-2)Man(a1-3)[GlcNAc(b1-4)][GlcNAc(b1-2)Man(a1-6)]Man(b1-4)GlcNAc(b1-4)GlcNAc", "method_in_brief": "as §1"}, "[36]": {"biological_target": "GlcNAc(b1-2)Man(a1-3)[GlcNAc(b1-4)][GlcNAc(b1-2)Man(a1-6)]Man(b1-4)GlcNAc(b1-4)[Fuc(a1-6)]GlcNAc", "method_in_brief": "as §1"}, "[37]": {"biological_target": "GlcNAc(b1-2)[GlcNAc(b1-4)]Man(a1-3)[GlcNAc(b1-2)Man(a1-6)]Man(b1-4)GlcNAc(b1-4)GlcNAc", "method_in_brief": "as §1"}, "[38]": {"biological_target": "GlcNAc(b1-2)[GlcNAc(b1-4)]Man(a1-3)[GlcNAc(b1-4)][GlcNAc(b1-2)Man(a1-6)]Man(b1-4)GlcNAc(b1-4)GlcNAc", "method_in_brief": "as §1"}, "[39]": {"biological_target": "GlcNAc(b1-2)[GlcNAc(b1-4)]Man(a1-3)[GlcNAc(b1-4)][GlcNAc(b1-2)[GlcNAc(b1-6)]Man(a1-6)]Man(b1-4)GlcNAc(b1-4)GlcNAc", "method_in_brief": "as §1"}, "[40]": {"biological_target": "GlcNAc(b1-2)[GlcNAc(b1-4)]Man(a1-3)[GlcNAc(b1-4)][GlcNAc(b1-2)[GlcNAc(b1-6)]Man(a1-6)]Man(b1-4)GlcNAc(b1-4)[Fuc(a1-6)]GlcNAc", "method_in_brief": "as §1"}, "[41]": {"biological_target": "GlcNAc(b1-2)[GlcNAc(b1-6)]Man(a1-6)[GlcNAc(b1-2)Man(a1-3)]Man(b1-4)GlcNAc(b1-4)GlcNAc", "method_in_brief": "as §1"}, "[42]": {"biological_target": "GlcNAc(b1-2)[GlcNAc(b1-6)]Man(a1-6)[GlcNAc(b1-2)Man(a1-3)]Man(b1-4)GlcNAc(b1-4)[Fuc(a1-6)]GlcNAc", "method_in_brief": "as §1"}, "[43]": {"biological_target": "GlcNAc(b1-2)[GlcNAc(b1-6)]Man(a1-6)[GlcNAc(b1-4)][GlcNAc(b1-2)Man(a1-3)]Man(b1-4)GlcNAc(b1-4)GlcNAc", "method_in_brief": "as §1"}, "[44]": {"biological_target": "GlcNAc(b1-3)Fuc", "method_in_brief": "as §1"}, "[45]": {"biological_target": "GlcNAc(b1-3)Gal", "method_in_brief": "as §1"}}, "note": "The other results are listed elsewhere or left out."}
{"binder": "MpL2 (Macrolepiota procera) (protein) MSTQVSSGQTYKITNVKAGTVIRLSGEDNKSIIGYPYHSGKNQQWTFNWTGKAWTLRSASSGSYLGIEGTPADGTRLVAVNDPFEWHIWRDEANENAFRIFVPFTNYNLDLSGYGDTTPGTPVQLWWTWEGLHQTWTIDRP", "values": [{"measurement": "glycan array binding signal (z-score)", "setting": "[1]", "value": 0.075}, {"measurement": "glycan array binding signal (z-score)", "setting": "[2]", "value": -1.07}, {"measurement": "glycan array binding signal (z-score)", "setting": "[3]", "value": -0.199}, {"measurement": "glycan array binding signal (z-score)", "setting": "[4]", "value": -0.975}, {"measurement": "glycan array binding signal (z-score)", "setting": "[5]", "value": -0.468}, {"measurement": "glycan array binding signal (z-score)", "setting": "[6]", "value": -0.246}, {"measurement": "glycan array binding signal (z-score)", "setting": "[7]", "value": -0.246}, {"measurement": "glycan array binding signal (z-score)", "setting": "[8]", "value": -0.109}, {"measurement": "glycan array binding signal (z-score)", "setting": "[9]", "value": 0.243}, {"measurement": "glycan array binding signal (z-score)", "setting": "[10]", "value": -0.021}, {"measurement": "glycan array binding signal (z-score)", "setting": "[11]", "value": -0.32}, {"measurement": "glycan array binding signal (z-score)", "setting": "[12]", "value": -0.285}, {"measurement": "glycan array binding signal (z-score)", "setting": "[13]", "value": -0.646}, {"measurement": "glycan array binding signal (z-score)", "setting": "[14]", "value": -0.037}, {"measurement": "glycan array binding signal (z-score)", "setting": "[15]", "value": -0.35}, {"measurement": "glycan array binding signal (z-score)", "setting": "[16]", "value": -0.191}, {"measurement": "glycan array binding signal (z-score)", "setting": "[17]", "value": -0.282}, {"measurement": "glycan array binding signal (z-score)", "setting": "[18]", "value": 0.2}, {"measurement": "glycan array binding signal (z-score)", "setting": "[19]", "value": 0.105}, {"measurement": "glycan array binding signal (z-score)", "setting": "[20]", "value": 9.35}, {"measurement": "glycan array binding signal (z-score)", "setting": "[21]", "value": -0.011}, {"measurement": "glycan array binding signal (z-score)", "setting": "[22]", "value": -1.32}, {"measurement": "glycan array binding signal (z-score)", "setting": "[23]", "value": -0.334}, {"measurement": "glycan array binding signal (z-score)", "setting": "[24]", "value": -0.189}, {"measurement": "glycan array binding signal (z-score)", "setting": "[25]", "value": -0.251}, {"measurement": "glycan array binding signal (z-score)", "setting": "[26]", "value": -0.021}, {"measurement": "glycan array binding signal (z-score)", "setting": "[27]", "value": -0.304}, {"measurement": "glycan array binding signal (z-score)", "setting": "[28]", "value": 0.083}, {"measurement": "glycan array binding signal (z-score)", "setting": "[29]", "value": -0.264}, {"measurement": "glycan array binding signal (z-score)", "setting": "[30]", "value": 0.004}, {"measurement": "glycan array binding signal (z-score)", "setting": "[31]", "value": 0.511}, {"measurement": "glycan array binding signal (z-score)", "setting": "[32]", "value": -0.318}, {"measurement": "glycan array binding signal (z-score)", "setting": "[33]", "value": -0.206}, {"measurement": "glycan array binding signal (z-score)", "setting": "[34]", "value": 1.36}, {"measurement": "glycan array binding signal (z-score)", "setting": "[35]", "value": -0.204}, {"measurement": "glycan array binding signal (z-score)", "setting": "[36]", "value": -0.375}, {"measurement": "glycan array binding signal (z-score)", "setting": "[37]", "value": -0.1}, {"measurement": "glycan array binding signal (z-score)", "setting": "[38]", "value": -0.261}, {"measurement": "glycan array binding signal (z-score)", "setting": "[39]", "value": -0.207}, {"measurement": "glycan array binding signal (z-score)", "setting": "[40]", "value": 0.14}, {"measurement": "glycan array binding signal (z-score)", "setting": "[41]", "value": -0.306}, {"measurement": "glycan array binding signal (z-score)", "setting": "[42]", "value": 0.587}, {"measurement": "glycan array binding signal (z-score)", "setting": "[43]", "value": -0.215}, {"measurement": "glycan array binding signal (z-score)", "setting": "[44]", "value": 0.069}, {"measurement": "glycan array binding signal (z-score)", "setting": "[45]", "value": -0.201}]}
